Where “and” joins values, the source holds several entries; their conditions need not be identical. Equal entries are not always repeated. Out of some 310,000 compounds screened, about 18,000 (5.8%) were called active. This list was built around the results that the source calls inconclusive (neither active nor inactive); the mix of calls is not that of the screen. Calls come from the whole dose curve; as a rule, active = well fitted inhibition curve with a large enough effect; inconclusive = small, poorly fitted or top-dose-only effect, or another doubt; inactive = no such curve, though single readings can be large or run the other way. No potency is given beside an inconclusive call; the fits are too rough.
Experiment: Primary qHTS for delayed death inhibitors of the malarial parasite plastid, 48 hour incubation
Settings: P. falciparum luciferase growth in erythrocytes; series mostly up to 28.7 µM
Outline: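 Luciferase-expressing parasites in RBCs, 2% Hct / 0.1% parasitemia final; RPMI 1640 + 0.5% Albumax; 37 C, 5% CO2, one generation; luminescence read-out, lower signal = inhibition.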
With `Cc1ccc2nc(/C(C#N)=C/c3ccc(O)c(O)c3)[nH]c2c1` the Potency was inconclusive [inhibitor, single point]. For `O=C(CN(c1ccc(Cl)c(C(F)(F)F)c1)S(=O)(=O)c1ccccc1)N/N=C/c1cccc2c1OCCO2`, the Potency was “inactive”. For `CC(C)(Oc1ccc(Cl)cc1)C(=O)Nc1ccc2oc(=O)ccc2c1`, the Potency was inconclusive [inhibitor, single point]. With `CCOC(=O)c1c(N2C(=O)Nc3ccccc3N2O)sc2c1CCCCC2` the Potency was “inactive”. For `CCOc1ccc(NC(=O)c2ccc3c(c2)CCN3S(C)(=O)=O)cc1`, the Potency was inconclusive [inhibitor, full curve]. For `O=C(Cn1ncc2c3ccccc3n(Cc3ccc(F)cc3)c2c1=O)N1CCC2(CC1)OCCO2`, the Potency was active: 11.7 µM. With `CCC(=O)c1ccc(OCC(=O)OCC(=O)N2c3ccccc3CC2C)cc1` (centres undefined) the Potency was “inactive”. In the case of `Cc1c(CN2CCN(CC(C)(C)C)C(CCO)C2)[nH]c2ccccc12` (centres undefined), the Potency is reported as inconclusive [inhibitor, single point]. For `Cc1ccc(C)c(CN2C(=O)CSc3ccc(C(=O)NCC(C)CN4CCC(C)CC4)cc32)c1` (centres undefined), the Potency was inconclusive [inhibitor, partial curve, poor fit]. For `COC(=O)[C@]1(C)CCC[C@@]2(C)C3CC[C@@]4(C)C[C@]3(CCC21)CC(=O)N4Cc1ccc(OC)cc1` (some centres undefined), the Potency was active: 1.65 µM. In the case of `CCc1ccc(C(=O)CSC2=C(C#N)C(c3ccco3)C(C(C)=O)=C(C)N2)cc1` (centres undefined), the Potency is reported as inconclusive [inhibitor, partial curve, poor fit]. For `COc1ccc(NC(=O)/C(=C\c2ccncc2)NC(=O)c2ccccc2)cc1`, the Potency was inconclusive [inhibitor, single point]. With `Cc1ccc2cc(CN(Cc3nnnn3C3CCCCC3)CC3CCCO3)c(=O)[nH]c2c1` (centres undefined) the Potency was inconclusive [inhibitor, partial curve]. In the case of `CCOC(=O)c1cnc2ccc(OC)cc2c1NCCc1ccc(OC)c(OC)c1`, the Potency is reported as active: 2.62 µM. In the case of `CC(=O)N1CCOc2ccc(S(=O)(=O)N3CCC(C(=O)Nc4ccc(F)cc4)CC3)cc21`, the Potency is reported as inconclusive [inhibitor, single point]. With `COc1ccc(CN2CC(=O)N3[C@H]4c5ccccc5OC[C@@H]4[C@H](c4ccccc4)[C@]3(C)C2=O)cc1` the Potency was active: 9.28 µM. For `CC1CC1C(=O)N(C)CC(=O)Nc1ccc(Cl)c(C(F)(F)F)c1` (centres undefined), the Potency was “inactive”. In the case of `CCCCCCC[N+](CC)(CC)CCCCc1ccc(Cl)cc1`, the Potency is reported as active: 405 nM and active: 465 nM. In the case of `Cc1cccc(S(=O)(=O)NC(Cc2c[nH]c3ccccc23)C(=O)O)c1` (centres undefined), the Potency is reported as “inactive”. For `Cc1cc(N)n(-c2nc3ccccc3s2)n1`, the Potency was inconclusive [inhibitor, single point]. For `Cc1cc(Cl)c2oc(C(=O)N(C)Cc3nccn3C)c(C)c2c1`, the Potency was inconclusive [inhibitor, single point]. In the case of `CCCn1c(SCC(=O)Nc2nnc(C)s2)nnc1C1CC1`, the Potency is reported as inconclusive [inhibitor, partial curve]. For `CC1(c2ccc(OC(F)F)cc2)NC(=O)N(/N=C/c2c(O)ccc3ccccc23)C1=O` (centres undefined), the Potency was “inactive”. With `Cc1ccc(NC(=O)CN(C)C(=O)c2ccc(S(=O)(=O)N(C)c3ccccc3)cc2)cc1` the Potency was inconclusive [inhibitor, partial curve]. With `COc1ccc(C2c3ccc(O)cc3Oc3ncn(CCN4CCOCC4)c(=N)c32)cc1` (centres undefined) the Potency was inconclusive [inhibitor, single point]. With `COc1cc2nc(CN3CCC(C(O)(c4ccccc4)c4ccccc4)CC3)[nH]c(=O)c2cc1OC` the Potency was inconclusive [inhibitor, partial curve]. With `CC(=O)N1CCN(C(=S)c2ccc([N+](=O)[O-])cc2)CC1` the Potency was inconclusive [inhibitor, single point]. In the case of `CCSc1ccc(-c2nn(-c3ccccc3)cc2/C=C(/C#N)C(=O)NCCCOC)cc1`, the Potency is reported as active: 1.85 µM. In the case of `CCCCn1c(=O)[nH]c(=O)c2c1nc(-c1ccc(C)c([N+](=O)[O-])c1)n2CC`, the Potency is reported as inconclusive [inhibitor, full curve]. For `CCOC(=O)C1CCN(C(=O)c2cc(COc3ccc(OC)c4ccccc34)on2)CC1`, the Potency was “inactive”. For `COc1ccccc1NS(=O)(=O)c1cccc(NC(=O)c2nn(C)c(=O)c3ccccc23)c1`, the Potency was inconclusive [inhibitor, single point]. With `CC(OCC(O)CN(C)CCOc1ccccc1)c1ccc(Cl)cc1` (centres undefined) the Potency was inconclusive [inhibitor, partial curve, poor fit]. In the case of `COc1ccc(Cl)cc1NC(=O)CNc1ccccc1CN(C)C1CCCCC1`, the Potency is reported as inconclusive [inhibitor, single point]. In the case of `COC(=O)c1ccc(COc2ccc(/C=C/C(=O)c3ccc(OC)c(CSCC(=O)O)c3)cc2OC)cc1`, the Potency is reported as inconclusive [inhibitor, full curve, poor fit]. In the case of `Cc1ccc(CSc2nnc(NC(=O)C3=COCCO3)s2)cc1`, the Potency is reported as “inactive”. With `CCOC(=O)c1c(NC(=O)CN2CCOCC2)sc2c1CC(C)(C)OC2` the Potency was inconclusive [inhibitor, single point]. For `CC(=O)NC(=S)c1c(N)n(Cc2ccccc2)c(=O)n(C)c1=O`, the Potency was inconclusive [inhibitor, single point]. For `CC(NC(=O)CNC(=O)c1ccc2c(c1)OCO2)c1ccc(S(N)(=O)=O)cc1` (centres undefined), the Potency was “inactive”. For `C[N+]1(CC(O)c2ccccc2)CCCCCC1` (centres undefined), the Potency was inconclusive [inhibitor, single point]. For `CCCN1C2CCCC1CC(NC(=O)c1cccc([N+](=O)[O-])c1)C2` (centres undefined), the Potency was inconclusive [inhibitor, single point]. With `CSC(=N/N=C(\N)c1cnccn1)SC` the Potency was “inactive”. With `O=C(O)c1ccc(CSc2ncn[nH]2)cc1` the Potency was inconclusive [inhibitor, single point]. For `Cc1cc(C)n(-c2ccc(C(=O)Nc3nc4ccccc4s3)cc2)n1`, the Potency was “inactive”. For `Cc1cc(C)c(OCC(=O)Nc2ccc3c(c2)OCO3)cc1C`, the Potency was “inactive”. For `O=C1OC(c2cccc([N+](=O)[O-])c2)C2(CCCC2)C(=O)C12CCCCC2` (centres undefined), the Potency was inconclusive [inhibitor, single point]. With `CC(CN1C(C)CCCC1C)OC(=O)c1ccccc1F` (centres undefined) the Potency was “inactive”. In the case of `COc1cccc(C(C(=O)NC2CCCC2)N(Cc2ccccc2OC)C(=O)c2ccco2)c1` (centres undefined), the Potency is reported as inconclusive [inhibitor, single point]. With `COc1ccc(/C=C/c2ccccc2)cc1[C@H]1[C@H]2C=CC[C@@H](C)[C@@H]2C(=O)N1Cc1ccccc1` the Potency was inconclusive [inhibitor, full curve]. For `N#C/C(=C\c1ccc(-c2cccc([N+](=O)[O-])c2)o1)c1nnc(N2CCOCC2)n1-c1ccccc1`, the Potency was inconclusive [inhibitor, single point]. With `CCOC(=O)C1CCN(C(=O)c2ccccc2NC(=O)c2ccc(Br)cc2)CC1` the Potency was inconclusive [inhibitor, partial curve, poor fit]. In the case of `CCN1/C(=C2/OC(=S)N(C)C2=O)Sc2ccccc21`, the Potency is reported as “inactive”. For `CCOC(=O)COc1ccc2c(c1)c(C(=O)OCC)c(C)n2CC`, the Potency was “inactive”. For `CCn1c(Cc2ccccc2)nnc1SCC(=O)Nc1ccccc1O`, the activity change, negative = inhibition was inactive: -14.5% [at 5.75 µM]. In the case of `COc1ccc(NC(=O)CCSCCC(=O)Nc2ccc(OC)cc2OC)c(OC)c1`, the Potency is reported as “inactive”. With `COc1cccc(C(=O)NCc2ccco2)c1` the Potency was “inactive”. For `O=C(Cc1ccon1)c1ccc(O)cc1O`, the Potency was “inactive”. For `CC(C)c1cc(C(=O)Nc2ccc3c(c2)OCO3)no1`, the Potency was “inactive”. With `COc1ccc2[nH]cc(CCN)c2c1` the Potency was inconclusive [inhibitor, single point]. With `N=c1c2c(n(Cc3ccc(F)cc3)c3c1CCC3)CCCC2` the Potency was inconclusive [inhibitor, partial curve, poor fit]. In the case of `CC(C)(C)N1C(=O)[C@H]2[C@@H](c3ccc(Br)cc3)N3C(=O)N(c4cccc(Cl)c4)C(=O)[C@@]3(Cc3ccccc3)[C@H]2C1=O`, the Potency is reported as active: 3.29 µM. For `O=C(c1cnn2c(C(F)F)cc(-c3ccccc3)nc12)N1CCc2ccccc2C1`, the Potency was inconclusive [inhibitor, partial curve]. For `CC(C)c1csc(CN2CCN(Cc3ccc(F)c(F)c3)C(CCO)C2)n1` (centres undefined), the Potency was inconclusive [inhibitor, single point]. For `COc1ccc2[nH]c3c(N4CCC(O)(c5cccc(C(F)(F)F)c5)CC4)ncnc3c2c1`, the Potency was active: 14.7 µM. With `Cn1[nH]c(C(F)(F)F)cc1=O` the Potency was inconclusive [inhibitor, full curve, poor fit]. In the case of `CCOc1ncccc1C(=O)OCC(=O)Nc1ccc(C)c(S(=O)(=O)N(C)C)c1`, the Potency is reported as “inactive”. For `CC(=O)NCC(O)c1ccc([N+](=O)[O-])cc1` (centres undefined), the Potency was inconclusive [inhibitor, single point]. In the case of `CCOc1nc2c(c(=O)n(C)c(=O)n2C)n1Cc1ccccc1Cl`, the Potency is reported as inconclusive [inhibitor, partial curve, poor fit]. For `Cc1ccc(S(=O)(=O)Nc2c(Cl)c(Cl)c(O)c3ccccc23)cc1`, the Potency was “inactive”. With `CCc1ccc(N(C(=O)c2ccoc2C)C(C(=O)NC2CCCC2)c2ccc(OC)cc2)cc1` (centres undefined) the Potency was inconclusive [inhibitor, partial curve, poor fit].

— PubChem BioAssay AID504832 (National Center for Advancing Translational Sciences (NCATS), 2011)
% is set by controls: 0 for no effect and ±100 for the full control effect; potency is the fitted concentration of half-maximal effect; tags give direction and shape of the fitted curve.
